PubChem BioAssay AID485344 (National Center for Advancing Translational Sciences (NCATS), 2010)
Out of some 340,000 compounds screened, about 6,900 (2%) were called active. No stated cut-off is given here; in the data, active means inhibition above about 30%; inactive means below that, where a call was filed. Only a part is listed here, and it is no random draw. The source gives no active or inactive call for entries shown without one.

The compounds below were run against D(2) dopamine receptor (Homo sapiens) (UniProt P14416) (assay: HTS Assay for Allosteric Antagonists of the Human D2 Dopamine Receptor: Primary Screen for Antagonists). Conditions: HEK293 TREx D2 cells, calcium flux, dopamine EC80; at 10 µM; stronger effect = higher value.
Sequence of UniProt P14416 (P14416 whole entry, looked up): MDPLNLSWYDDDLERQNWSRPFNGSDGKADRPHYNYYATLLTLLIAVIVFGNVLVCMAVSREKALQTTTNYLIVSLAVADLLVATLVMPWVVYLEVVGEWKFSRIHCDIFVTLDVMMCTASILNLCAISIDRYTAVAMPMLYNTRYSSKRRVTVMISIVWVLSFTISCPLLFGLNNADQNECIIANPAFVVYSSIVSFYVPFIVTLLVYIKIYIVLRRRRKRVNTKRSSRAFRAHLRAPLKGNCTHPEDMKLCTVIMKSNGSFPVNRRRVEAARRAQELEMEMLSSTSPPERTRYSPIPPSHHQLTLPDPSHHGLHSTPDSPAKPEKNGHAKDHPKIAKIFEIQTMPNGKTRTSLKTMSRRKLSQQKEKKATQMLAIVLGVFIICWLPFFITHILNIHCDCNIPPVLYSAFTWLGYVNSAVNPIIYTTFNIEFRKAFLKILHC
Outline: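 Measurement of antagonist activity uses fluorescent calcium dye in inducible HEK293 T-REx D2 cells: 10 s baseline, compound addition with 180 s read, EC80 dopamine addition with a further 180 s read.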
Further: 0% is about no effect.

Structure (SMILES) | inhibition
COc1ccc(Nc2nnc(-c3ccc(C)c(S(N)(=O)=O)c3)c3ccccc23)cc1 | 1.43%
CC(=O)c1cccc(NC(=O)C2=CC(c3ccco3)=NS(=O)(=O)N2C)c1 | 6.89%
COc1ccc(CCNc2oc(COc3ccc(Cl)cc3)nc2C#N)cc1OC | 7.4%
CCc1ccc2nc(N3CCN(C(=O)c4ccco4)CC3)sc2c1 | -23.4%
Cc1ccc(NC(=O)Cn2c(=O)oc3cc(S(=O)(=O)N4CCCC4)ccc32)cc1F | -3.39%
CCOC(=O)c1ccc(NC(=O)C2CCCN(c3ncnc4onc(C)c34)C2)cc1 (stereo not given) | -12.8%
Cc1nc2ccc(S(=O)(=O)CCC(=O)Nc3ccccc3C)cc2s1 | 11.3%
Cc1ccc2ncc3c(-c4ccccc4)nn(CC(=O)NC4CCCCC4)c3c2c1 | -4.44%
O=C(CC1NCCNC1=O)Nc1cccc(F)c1 (stereo not given) | 16.5%
COc1ccccc1N1CCN(CCCNC(=O)Cn2ncc3c([nH]c4ccccc43)c2=O)CC1 | active: 90.3%
O=C(Nc1cccc(C(F)(F)F)c1)c1cc2ncc(Br)cn2n1 | active: 52.9%
COc1ccc(NC(=O)CSC2=Nc3ccccc3C3=NC(CCC(=O)NCc4ccco4)C(=O)N23)cc1 (stereo not given) | -24.1%
O=C(Nc1ccc(NC(=O)c2cc3ccccc3o2)cc1)c1ccccc1 | 7.19%
Cn1cc(S(=O)(=O)c2ccc(Cl)cc2)c(=O)c2cc(F)c(N3CCCCCC3)cc21 | -0.917%
O=C(CN1CCN(S(=O)(=O)c2cc(Cl)ccc2Cl)CC1)Nc1cccc(F)c1 | 4.39%
CC(C(=O)Nc1cccc(C#N)c1)n1nc(-c2ccccc2)c2c(c1=O)CCCC2 (stereo not given) | -9.25%
Fc1ccc(-c2nc(Nc3ccc(F)c(Cl)c3)nc3c2COc2ccccc2-3)cc1 | 6.86%
CCOc1ccc(C2CC(=O)n3nc(-c4ccc(C)cc4)nc3S2)cc1OC (stereo not given) | -1.67%
CC1=C(C(=O)Nc2ccc(C)cc2C)C(c2ccccc2[N+](=O)[O-])n2ncc(C(=O)Nc3ccccc3)c2N1 (stereo not given) | -12%
CCC1CCCCN1CCCCOc1cccc(Cl)c1 (stereo not given) | active: 54.9%
CCOC(=O)C1CCCN(C(=O)c2ccc3c(c2)N(Cc2ccccc2)C(=O)c2ccccc2S3(=O)=O)C1 (stereo not given) | 1.36%
CCOc1ccc(NC(=O)c2ccc3c(SCC(=O)O)c4c(nc3c2)CCCC4)cc1 | -10.4%
Cc1ccc(C)c(N2CCN(C(=O)C3CCN(c4nc(-c5ccc(C(C)C)cc5)no4)CC3)CC2)c1 | 3.26%
Cc1ccc(C(=O)N2CCc3cc(CNS(=O)(=O)c4ccc(Cl)s4)ccc32)cc1 | 22.9%

Structure (SMILES) | inhibition
CCS(=O)(=O)N1CCc2cc(C(=O)NCc3ccc(OC)cc3)ccc21 | 4.18%
CCC(CC)C(=O)Nc1ccc(OCc2cc(=O)n3c4c(sc3n2)CCCC4)cc1 | 4.1%
O=C(NC1CC1)c1ccc(Cn2c(SCc3cccc(F)c3)nc3cccnc32)cc1 | 4.08%
O=C(NCC(c1cccnc1)N1CCc2ccccc2C1)c1ccc(F)c(F)c1 (stereo not given) | -3.25%
O=C(Nc1ccc(Cl)cc1)C1CCN(c2nc3ccccc3nc2C(F)(F)F)CC1 | 6.64%
COc1ccc(CCN2C(=O)c3oc4cc(C)cc(C)c4c(=O)c3C2c2ccc(F)cc2)cc1OC (stereo not given) | 10.7%
COc1ccccc1N1CCN(C(=O)c2ccc(CS(=O)c3ccccc3C)o2)CC1 (stereo not given) | 12.5%
COCCc1nn2c(=O)cc(COC(=O)c3ccc4c(c3)OCO4)nc2s1 | 0.0236%
CC(=O)Nc1sc(/C(C#N)=C\c2cccc(Cl)c2)nc1-c1ccc(C)cc1 | active: 30.2%
Cc1ccc(Nc2nc(N)nc(CN3CCN(c4ccccc4F)CC3)n2)cc1 | active: 78.2%
Cc1ccc(NC2=C(c3ccc(C(F)(F)F)cc3)C(=O)c3ccccc32)cc1C | -3.26%
CC(=O)Nc1ccc(C(=O)CSc2nnc(-c3ccccc3)n2-c2ccccc2)cc1 | 2.46%
Cc1ccc(S(=O)(=O)c2nc(-c3ccccc3F)oc2N2CCCCC2)cc1 | 23.2%
Cc1ccc(-c2cc(C(=O)NCc3cnn(C)c3C)c3cc(Br)ccc3n2)cc1 | 8.61%
COc1ccc(Cl)cc1Nc1sc(C(=O)c2ccccc2)c(N)c1C(=O)Nc1ccccc1 | -13.3%
N#CCc1ccc(NC(=O)/C=C/c2ccc([N+](=O)[O-])o2)cc1 | active: 31.9%
CC(=O)N1CCc2cc(CNS(=O)(=O)c3ccc(F)cc3)ccc21 | -26.1%
CCc1c(C)sc2c1CCN(Cc1cccc(F)c1)C2c1ccccc1 (stereo not given) | -3.86%
O=C(NCc1cccc(Cl)c1)c1cc2c(s1)-c1ccccc1OC2 | -24.2%
CCc1ccc(-c2cn3c(n2)sc2cc(C(=O)NC4CCCCCC4)ccc23)cc1 | 19.5%
COP(=O)(/C=C/c1ccccc1)C(O)c1ccc(F)cc1 (stereo not given) | active: 44.9%
O=C(CN1C(=O)COc2ccc(S(=O)(=O)N3CCCCCC3)cc21)NCc1ccc(Cl)cc1 | 22.7%
O=C(NCCCN1CCN(c2ccccc2F)CC1)Nc1ccc(F)cc1 | active: 80.7%
CCc1ccc(N=C2NC(=O)CC(C(=O)Nc3ccc(OC)cc3)S2)cc1 (stereo not given) | -9.06%

Structure (SMILES) | inhibition
COc1cc2c(cc1OC)C(COc1ccccc1OC)N(C(=O)CC(C)C)CC2 (stereo not given) | 28.2%
CC(=O)CC(c1ccccc1)S(=O)(=O)c1ccc([N+](=O)[O-])cc1 (stereo not given) | active: 70.3%
CCOC(=O)c1ccccc1NC(=O)Cn1cc(C(=O)c2cccc(OC)c2)c(=O)c2ccc(C)nc21 | -11.2%
Cc1cccc(-c2nc(S(=O)(=O)c3ccc(F)cc3)c(N3CCN(c4ccccc4)CC3)o2)c1 | 0.914%
Cc1ccc(CCNC(=O)c2ccc3c(c2)N(Cc2cccc(C)c2)C(=O)c2ccccc2S3(=O)=O)cc1 | 6.2%
CC(C)c1ccc(NC(=O)c2cc3c(s2)-c2ccccc2SC3)cc1 | 13.7%
COC(=O)CCC(=O)OC1(C)C(=O)C2=CN(C(CO)CO)C(c3ccc(OC)cc3)=CC2=C(Br)C1=O (stereo not given) | active: 30%
Cc1ccc(O)c(C(CC(=O)NCC2(c3ccccc3)CCCC2)c2ccccc2)c1 (stereo not given) | -8.86%
CCc1c(C)nc(SCC(=O)N2CCN(c3ccccc3OC)CC2)[nH]c1=O | -3.48%
CC(=O)N1CCOc2cc(S(=O)(=O)Nc3cccc(C(F)(F)F)c3)c(Cl)cc21 | -26.3%
CCOC(=O)c1ccccc1NC(=O)C(=O)Nc1ccc2nc3n(c(=O)c2c1)CCCCC3 | -6.34%
COc1ccc(NC(=O)C2CCN(S(=O)(=O)c3ccc4[nH]c(=O)ccc4c3)CC2)c(OC)c1 | 7.17%
Cc1cn2c(=O)cc(COc3cccc(NC(=O)c4ccccc4C)c3)nc2s1 | 3.44%
COc1ccc(OC)c(NC(=O)Cc2coc3ccc(C(C)C)cc23)c1 | -10.1%
CCOC(=O)c1[nH]c(C)c(CCC(=O)NCc2ccccc2)c1C | 5.91%
CCOC(=O)c1c(-c2ccccc2)oc2ccc(N(C(C)=O)S(=O)(=O)c3cc(C)ccc3C)cc12 | -7.27%
Cc1cc(C)cc(NC(=O)N2CCC(N3CCCCC3)CC2)c1 | -1.21%
COc1ccc(S(=O)(=O)N2CCN(c3ccccc3F)CC2)cc1-c1noc(C)n1 | -15%
Fc1ccc(-c2noc3ncnc(N4CCN(c5ccccc5)CC4)c23)cc1 | -3.49%
COc1ccc(OC)c(NC(=O)c2cc3c(=O)oc4ccccc4c3s2)c1 | 13%
Cc1ccc(C)c(NC(=O)c2ccc3c(O)c(S(=O)(=O)c4ccc(Cl)cc4)c(=O)[nH]c3c2)c1 | -3.68%
CCN(CC)c1nn2c(=O)c(C(=O)NCCc3ccccc3)cnc2s1 | 0.287%
CCOc1ccc(-c2nonc2NC(=O)c2oc3cc(C)ccc3c2C)cc1 | -4.62%
CCCCSCCCNC(=O)CN1C(=O)c2cccnc2Oc2ccc(Cl)cc21 | -7.88%

Structure (SMILES) | inhibition
CCN(CC)C(=O)C1CC(c2ccc(OC)cc2)=NO1 (stereo not given) | active: 31.3%
CCOC(=O)CSc1nc2ccc(NC(=O)c3ccc(C)cc3)cc2s1 | 1.56%
CCc1ccc(CNC(=O)Cc2ccc(NC(=O)N3CCSc4ncccc43)cc2)cc1 | 1.19%
COc1cccc(N2CCN(C(=O)C(CCSC)NS(=O)(=O)c3ccc4c(c3)oc(=O)n4C)CC2)c1 (stereo not given) | 4.24%
O=C(O)c1ccc2c(c1)ncn2-c1ccc(F)c(F)c1 | 21.6%
COc1ccc(NC(=O)C2=C(C)Nc3ncnn3C2c2ccc(O)cc2)cc1 (stereo not given) | -6.51%
COc1ccc(C(=O)NCCC2=CCCCC2)cc1OC | active: 34.5%
COc1ccc2ccccc2c1-c1sc(Nc2ccccc2)n[n+]1-c1ccc(F)cc1 | active: 32%
CCc1ccc(CNC(=O)c2ccc(OC)c(OC3CCN(C(C)C)CC3)c2)nc1 | active: 42%
CCOC(=O)CNC(c1ccccc1)c1cc(Br)ccc1NC(=O)CCN1CCOCC1 (stereo not given) | active: 37.9%
CCOC(=O)c1ccc(NC(=O)CCCc2nc(-c3ccccc3Cl)no2)cc1 | -6.87%
COc1ccc(/C(C)=N/Nc2nccnc2Cl)cc1 | active: 35.7%
CCOc1ccc(-c2cc(NC(=O)Nc3cccc(C(C)=O)c3)c(C(=O)OC)s2)cc1 | -1.05%
CCOc1ccc(S(=O)(=O)NCC(c2ccco2)S(=O)(=O)c2cccs2)cc1 (stereo not given) | 9.36%
Cc1ccc(NC(=O)c2cnn3c(C(F)F)cc(-c4ccccc4)nc23)c(C)c1 | 2.31%
COc1ccc(OC)c(NC(=O)C2CCCN(S(=O)(=O)c3c(C)nn(C)c3C)C2)c1 (stereo not given) | -2.43%
Cc1ccc(NC(=O)Nc2nnc(N(CC(C)C)CC(C)C)s2)cc1Cl | 6.35%
COc1ccc(N2CCN(C(=O)CCc3c(C)nn(-c4ccc(N5CCCC5)nn4)c3C)CC2)cc1 | 6.5%
CCOC(=O)c1cc(-c2ccccc2)n(-c2cccc(C(=O)Nc3ccc(F)c(F)c3)c2)c1C | -4.65%
COc1c(C)cc(S(=O)(=O)NCCc2c(C)[nH]c3ccccc23)c(C)c1C | 7.13%
CC(C)(CN1CCN(Cc2ccccc2)CC1)NS(=O)(=O)c1ccc(Cl)cc1 | active: 43.6%
Cc1cc(Nc2cccc([N+](=O)[O-])c2)n2c(nc3ccccc32)c1C#N | active: 34.9%
Cc1c(NC(=O)c2cc(-c3ccc(Cl)c(Cl)c3)on2)c(=O)n(-c2ccccc2)n1C | -3.58%
